Assay results taken from PubChem BioAssay AID493005 (National Center for Advancing Translational Sciences (NCATS), 2010).
Among all 340,000 compounds or so, fewer than 10 were called active. The shares of active, inactive and inconclusive entries below differ from those in the screen. Calls follow the shape of the dose curve; as a rule, active = well fitted inhibition curve with a large enough effect in the main read-out, with a control signal flat (not every such curve was filed as active); inconclusive = small, poorly fitted or top-dose-only effect, or effect the other way, or a change in a side signal; inactive = no such curve, though single readings can be large or run the other way. Potencies beside an inconclusive call are fits to weak or partial responses and may not hold up. A note “side channel” means that the fit belongs to a control or component signal, not to the main read-out.
Potency is read from the fitted curve at half-maximal effect; tags tell the direction and shape of the fitted curve or compound fluorescence and quenching.

What follows are molecules tested against Tumor susceptibility gene 101 protein (Homo sapiens) (UniProt Q99816) (assay: qHTS Assay for Iinhibitors of HIV-1 Budding by Blocking the Interaction of PTAP/TSG101). Settings: Fluorescence polarization, FITC-PTAP peptide / Tsg101 binding; series mostly up to 115 µM.
Chain of UniProt Q99816 (Q99816 whole entry, looked up, the tested form may be a part): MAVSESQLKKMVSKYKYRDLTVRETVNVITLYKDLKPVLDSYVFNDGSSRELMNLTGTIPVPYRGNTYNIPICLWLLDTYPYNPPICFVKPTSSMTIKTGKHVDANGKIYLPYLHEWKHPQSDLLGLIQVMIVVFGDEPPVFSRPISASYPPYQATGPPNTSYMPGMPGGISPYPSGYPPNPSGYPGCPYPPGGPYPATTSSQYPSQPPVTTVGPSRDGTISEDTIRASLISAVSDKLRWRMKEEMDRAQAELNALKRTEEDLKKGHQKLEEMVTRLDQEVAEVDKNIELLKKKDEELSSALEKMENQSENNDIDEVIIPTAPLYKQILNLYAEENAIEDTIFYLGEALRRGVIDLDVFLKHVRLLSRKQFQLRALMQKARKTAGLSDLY
How it was run: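 Tsg101 binding domain (10 uM final) was mixed with compound and a FITC-labeled PTAP peptide (50 nM final) in HEPES pH 7.5 buffer with NaCl, Tween 20, EDTA and TCEP; fluorescence polarization was read after 20 min at r.t.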
In the case of c1ccc2c(c1)CCCN2Cc1nnnn1CC1CCCO1 (centres undefined), the Potency is reported as inconclusive: 79.4 µM [fluorescent, side channel, partial curve].
In the case of O=C(C1=NN(c2ccccc2)C2C(=O)N(c3ccccc3)C(=O)C12)c1ccccc1 (centres undefined), the Potency is reported as inconclusive: 79.4 µM [fluorescent, partial curve, poor fit].
With Cc1ccc(N2C(=O)c3cccc4c(N5CCN(C)CC5)ccc(c34)C2=O)c2cccnc12 the Potency was inconclusive: 7.94 µM [fluorescent, side channel, full curve, poor fit].
With O=C(Nc1cc(F)cc(F)c1)c1ccc(NCCc2ccccc2)c([N+](=O)[O-])c1 the Potency was inconclusive: 50.1 µM [fluorescent, side channel, partial curve, poor fit].
In the case of CC(C)OC(=O)c1c2c(n3ccccc13)C(=O)c1ccccc1C2=O, the Potency is reported as inconclusive: 5.62 µM [fluorescent, side channel, full curve, poor fit].
For COc1ccc(-n2cc3c(-c4cccc(Br)c4)nnc(C)c3n2)cc1, the Potency was inconclusive: 89.1 µM [fluorescent, side channel, single point].
For O=C1c2ccccc2-c2onc3ccc(N4CCCC4)c1c23, the Potency was inconclusive: 50.1 µM [fluorescent, side channel, partial curve, poor fit].
With CC(OC(=O)c1ccc(NS(=O)(=O)c2ccc3[nH]c(=O)[nH]c3c2)cc1)C(=O)Nc1ccc(Cl)cc1 (centres undefined) the Potency was inconclusive: 79.4 µM [quencher, side channel, partial curve, poor fit].
With CN(C)c1ccc(/C=C2\SC(=S)N(Nc3ncc(C(F)(F)F)cc3Cl)C2=O)cc1 the Potency was inconclusive: 3.16 µM [fluorescent, side channel, full curve, poor fit].
In the case of O=C(NC1CCCCC1)c1cccc2c1C(=O)c1ccc(N3CCCC3)cc1S2(=O)=O, the Potency is reported as inconclusive: 50.1 µM [fluorescent, side channel, partial curve, poor fit].
With COCCNC(=O)/C(C#N)=C/c1cccc(/C=C(\C#N)C(=O)NCCOC)c1 the Potency was “inactive”.
N=c1c(C(=O)NCC2CCCO2)cc2c(=O)n3ccccc3nc2n1Cc1cccnc1 (centres undefined) was tested, and the Potency was inconclusive: 56.2 µM [fluorescent, partial curve, poor fit].
With O=C(CCl)N1c2ccccc2Oc2ccc3ccccc3c21 the Potency was inconclusive: 56.2 µM [falling, partial curve, poor fit].
With CC(C)OC(=O)c1nn2c(C(F)(F)F)cc(-c3ccc(Br)o3)nc2c1Br the Potency was inconclusive: 50.1 µM [fluorescent, side channel, partial curve, poor fit].
S=c1[nH]c2ccccc2n2cccc12 was tested, and the Potency was “inactive”.
With CN(C)c1ccc(/C=C2\Oc3ccc(C#Cc4cccc(N)c4)cc3C2=O)cc1 the Potency was inconclusive: 44.7 µM [fluorescent, side channel, partial curve, poor fit].
CSc1ccc(CN2CCC(C(=O)NCc3ccc(C)cc3)CC2)cc1 was tested, and the Potency was “inactive”.
For O=C(N/N=C\c1c(O)ccc2ccccc12)c1cncc(Br)c1, the Potency was inconclusive: 50.1 µM [fluorescent, side channel, partial curve, poor fit].
With CCOc1ccc(C2C(C#N)=C(N)N3C(=C2C#N)Sc2ccccc23)cc1 (centres undefined) the Potency was inconclusive: 70.8 µM [fluorescent, side channel, partial curve].
C/C(O)=c1/ccc2cccc3nc(C)nc1c23 was tested, and the Potency was inconclusive: 44.7 µM [fluorescent, side channel, partial curve, poor fit].
For O=C1c2ccccc2C(=O)c2c1ccc(O)c2O, the Potency was inconclusive: 50.1 µM [fluorescent, partial curve, poor fit].
CCCCCCCCCCCC(=O)NC(C(=O)OCC)C(O)c1cccc([N+](=O)[O-])c1 (centres undefined) was tested, and the Potency was inconclusive: 39.8 µM [quencher, side channel, partial curve, poor fit].
For CC(=O)[C@]1(O)Cc2c(O)c3c(c(O)c2[C@@H](O[C@H]2C[C@H](N)[C@H](O)[C@H](C)O2)C1)C(=O)c1ccccc1C3=O, the Potency was inconclusive: 56.2 µM [fluorescent, side channel, partial curve].
O=C(O)C(=O)/C(=C\c1ccccc1)c1ccc2ccccc2n1 was tested, and the Potency was inconclusive: 79.4 µM [fluorescent, side channel, partial curve, poor fit].
For Cc1cccc(-n2c(Cc3cc(=O)[nH]c(=O)[nH]3)nnc2SC(C)C)c1, the Potency was “inactive”.
For O=S(=O)(N/N=C/c1ccccc1OCc1ccc(Cl)cc1)c1ccccc1, the Potency was inconclusive: 89.1 µM [quencher, side channel, partial curve, poor fit].
With CCC(=O)Oc1ccc2c(c1)O/C(=C\c1ccco1)C2=O the Potency was inconclusive: 56.2 µM [fluorescent, side channel, partial curve, poor fit].
For C=CS(=O)(=O)c1c2cc(OC)ccc2nc2ccc(OC)cc12, the Potency was inconclusive: 79.4 µM [fluorescent, side channel, partial curve, poor fit].
With Cn1c(=O)c(Nc2ccc(O)cc2)c2c3c(cccc31)C(=O)c1ccccc1-2 the Potency was inconclusive: 44.7 µM [falling, partial curve, poor fit].
With CCOC(=O)c1c(-c2ccc(C)cc2)csc1NC(=O)C1CC=CCC1C(=O)O (centres undefined) the Potency was “inactive”.
For CC(=O)N1C(=O)C(=C2C=C(C)OC(C)=C2)c2ccccc21, the Potency was inconclusive: 50.1 µM [fluorescent, side channel, partial curve, poor fit].
With CCCCCCc1cc2cc(-c3nnc(-c4ccccc4OC)o3)c(=O)oc2cc1O the Potency was inconclusive: 10 µM [fluorescent, side channel, full curve, poor fit].
In the case of COc1cccc(-c2nc(C(N)=O)c3[nH]c(=O)n(-c4cccc(Cl)c4)c3n2)c1OC, the Potency is reported as “inactive”.
In the case of Cc1cc(C)c(CN2CCN(CCCn3cnc(C(=O)Nc4ccc(C)c(C)c4)n3)CC2)c(C)c1, the Potency is reported as “inactive”.
